# Screen size: about 390,000 compounds; about 1,400 (0.36%) were called active. Inconclusive results, whose numbers are uncertain, are shown with a selection of clear calls. Calls follow the shape of the dose curve; as a rule, active = well fitted inhibition curve with a large enough effect; inconclusive = small, poorly fitted or top-dose-only effect; inactive = no such curve, though single readings can be large or run the other way. Potencies of inconclusive entries are doubtful fits and often do not repeat.
# Target: Flap endonuclease 1 (Homo sapiens) (UniProt P39748)
# Assay: qHTS Assay for the Inhibitors of Human Flap endonuclease 1 (FEN1). Also: nearly all actives have a fitted effect of over 65% in size.
# Settings: Recombinant FEN1 flap cleavage, fluorescence, 15 min; series mostly up to 114 µM
# Outline: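 Quantitative HTS format: each compound was titrated, incubated with 10 nM nuclease for 15 min at room temperature, then challenged with flap substrate at 50 nM final. Signal change over 15 min gave concentration–effect curves.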
# Potency is read from the fitted curve at half-maximal effect; tags tell the direction and shape of the fitted curve.
# Chain of UniProt P39748 (P39748 whole entry, looked up): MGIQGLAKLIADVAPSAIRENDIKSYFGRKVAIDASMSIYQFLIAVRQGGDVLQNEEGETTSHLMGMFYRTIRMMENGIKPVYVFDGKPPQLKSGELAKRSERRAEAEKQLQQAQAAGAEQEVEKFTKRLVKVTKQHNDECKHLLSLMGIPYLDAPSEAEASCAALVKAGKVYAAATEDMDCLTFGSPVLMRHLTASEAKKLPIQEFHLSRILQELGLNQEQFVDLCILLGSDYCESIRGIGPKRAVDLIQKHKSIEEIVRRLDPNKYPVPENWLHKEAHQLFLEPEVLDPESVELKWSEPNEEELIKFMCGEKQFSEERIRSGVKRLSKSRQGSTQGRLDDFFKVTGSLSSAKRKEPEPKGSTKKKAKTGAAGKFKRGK
row,Compound,Potency
1,CCOC(=O)C1CCCN(Cc2ccc(OC)cc2OC)C1 (configuration not stated),inactive
2,O=C(O)c1cc([N+](=O)[O-])ccc1Nc1ccccc1,inactive
3,Cc1ccc2oc(=O)c3cc(C(=O)NCCCN4CCCCCC4)sc3c2c1,"inconclusive: 50.1 µM [inhibitor, partial curve]"
4,CC(=O)c1c(C)[nH]c(C(=O)OCC(=O)Nc2ccc(Cl)c(S(=O)(=O)N(C)C)c2)c1C,"inconclusive: 20 µM [inhibitor, full curve, poor fit]"
5,O=C(CNC(=O)N1CC(=O)Nc2ccccc21)Nc1cc(Cl)ccc1Cl,active: 39.8 µM
6,Cc1cccc(Nc2nc(N)c([N+](=O)[O-])c(N3CCCC(C)C3)n2)c1 (configuration not stated),"inconclusive: 31.6 µM [inhibitor, partial curve, poor fit]"
7,COc1cc2ccccc2cc1C(=O)OCC(=O)Nc1ccc(Br)cc1,"inconclusive: 79.4 µM [inhibitor, single point]"
8,CCOC(=O)c1cnc2c(ccc3ccccc32)c1NCCO,"inconclusive: 35.5 µM [inhibitor, partial curve, poor fit]"
9,O=C(O)c1cc(NC(=O)c2ccc([N+](=O)[O-])cc2)cc(NC(=O)c2ccc([N+](=O)[O-])cc2)c1,"inconclusive: 79.4 µM [inhibitor, partial curve]"
10,CCOc1ccc(C(=O)/C=C/c2cn(CN3CCN(C)CC3)c3ccccc23)cc1,"inconclusive: 79.4 µM [inhibitor, partial curve, poor fit]"
11,O=S(=O)(Nc1ccc(O)c2ccccc12)c1ccc(OC(F)(F)F)cc1,"inconclusive: 79.4 µM [inhibitor, partial curve, poor fit]"
12,O=C(O)CCc1ccc(-c2ccccc2)n1Cc1ccco1,inactive
13,Cc1cccc(N(CC(O)CON=C2c3ccccc3-c3ccccc32)S(C)(=O)=O)c1 (configuration not stated),"inconclusive: 56.2 µM [inhibitor, partial curve, poor fit]"
14,COc1ccccc1-c1noc(-c2ccc(NC3CCCC3)c([N+](=O)[O-])c2)n1,inactive
15,CCOC(=O)/C=C(\C)Sc1cc(O)c2ccccc2c1O,"inconclusive: 3.98 µM [inhibitor, full curve, poor fit]"
16,CC(=O)c1ccc(S(=O)(=O)N2CCN(c3nc(-c4ccccc4)nc4ccccc34)CC2)cc1,inactive
17,Cc1cccc(/C=C(\C(=O)O)c2ccc(S(=O)(=O)N3CCCC3)s2)c1,inactive
18,Cc1cc(Cl)ccc1OCC(=O)N1CCC(c2nc3ccccc3s2)CC1,inactive
19,O=C(O)CC(CCc1ccccc1)OC1OC(CO)C(O)C(O)C1O (configuration not stated),active: 7.94 µM
20,COc1cccc(NC(=O)CSc2nnc(-c3ccco3)c(-c3ccco3)n2)c1,"inconclusive: 50.1 µM [inhibitor, partial curve]"
21,COc1ccc2nc(-c3ccccc3)cc(C(=O)OCC(=O)N3CC(C)OC(C)C3)c2c1 (configuration not stated),"inconclusive: 44.7 µM [inhibitor, partial curve, poor fit]"

row,Compound,Potency
1,Cc1nn(-c2ccccc2)c2c1C(c1ccc(Br)s1)C(C#N)=C(N)O2 (configuration not stated),"inconclusive: 17.8 µM [inhibitor, partial curve]"
2,Cc1ccc(Cn2nnc3c(=O)[nH]c(C4CCN(S(=O)(=O)c5ccc(C)cc5)CC4)nc32)cc1,"inconclusive: 79.4 µM [inhibitor, partial curve, poor fit]"
3,Cc1cccc(NC(=O)CSc2nnc(-c3ccco3)c(-c3ccco3)n2)c1C,"inconclusive: 63.1 µM [inhibitor, partial curve, poor fit]"
4,CCCn1c(=O)c(C(=O)NNS(=O)(=O)c2ccc(Cl)cc2)c(O)c2ccccc21,"inconclusive: 56.2 µM [inhibitor, partial curve, poor fit]"
5,[O-][n+]1cccc2cccc(O)c21,"inconclusive: 35.5 µM [inhibitor, full curve]"
6,CCCCCCC[n+]1ccc(/C=C/c2c[nH]c3ccccc23)c2ccccc21,active: 25.1 µM
7,CC1=C(C(=O)OC2CCCCCCC2)C(c2cc3c(cc2Br)OCO3)CC(=O)N1 (configuration not stated),"inconclusive: 79.4 µM [inhibitor, partial curve, poor fit]"
8,CC(NCC(=O)Nc1cc(Cl)cc(Cl)c1)c1ccccc1 (configuration not stated),"inconclusive: 79.4 µM [inhibitor, partial curve, poor fit]"
9,CC(C)C(NC(=O)/C(=C\c1ccco1)NC(=O)c1ccco1)C(=O)O (configuration not stated),inactive
10,COc1ccc(OC)c(C(=O)CC2(O)C(=O)N(Cc3ccccc3C)c3ccccc32)c1 (configuration not stated),"inconclusive: 79.4 µM [inhibitor, partial curve, poor fit]"
11,N#C/C(C(=O)N1CCCCC1)=C1\Nc2ccccc2S1,inactive
12,COc1ccc(-c2cc(=O)c3c(C)cc(O)cc3o2)cc1,"inconclusive: 56.2 µM [inhibitor, partial curve, poor fit]"
13,CSc1ccc(/C=C/C(=O)NC(=O)c2ccccc2O)cc1,inactive
14,Cc1ccc(NC(=S)Nc2ccc(Cl)c(Cl)c2)c(OC(F)F)c1,"inconclusive: 100 µM [inhibitor, single point]"
15,CC(C)n1c(O)c(N=NC(=O)c2ccccc2NS(=O)(=O)c2cccs2)c2ccccc21,inactive
16,Cc1ccc2c(c1)C(=O)CC(c1ccccc1)S2 (configuration not stated),"inconclusive: 79.4 µM [inhibitor, partial curve, poor fit]"
17,CCOC(=O)c1c(-c2ccc(C)cc2)csc1NC(=O)c1cc(=O)c2cc(C)ccc2o1,"inconclusive: 89.1 µM [inhibitor, single point]"
18,Cc1ccc2[nH]c(=O)c3cc(C(=O)N4CCN(C(=O)c5ccco5)CC4)sc3c2c1,inactive
19,C(=N\NC1=Nc2cccc3cccc1c23)/c1ccccn1,"inconclusive: 22.4 µM [inhibitor, single point]"
20,Nc1ccc2c(c1)C(=O)c1ccc(N)cc1-2,"inconclusive: 44.7 µM [inhibitor, partial curve]"
21,CCOC(=O)C1CCN(C(=O)COC(=O)c2ccc([N+](=O)[O-])o2)CC1,"inconclusive: 28.2 µM [inhibitor, single point]"
